# Source: the supplement of paper PMC3334620
# Over roughly 33,000 sequences, “E-score (-0.5 to 0.5)” has its median near -0.041; the highest 2% begin near 0.37. The list shows a part of the results.
# Target: T1, Ecm22 (UniProt Q05958)
# T1 sequence: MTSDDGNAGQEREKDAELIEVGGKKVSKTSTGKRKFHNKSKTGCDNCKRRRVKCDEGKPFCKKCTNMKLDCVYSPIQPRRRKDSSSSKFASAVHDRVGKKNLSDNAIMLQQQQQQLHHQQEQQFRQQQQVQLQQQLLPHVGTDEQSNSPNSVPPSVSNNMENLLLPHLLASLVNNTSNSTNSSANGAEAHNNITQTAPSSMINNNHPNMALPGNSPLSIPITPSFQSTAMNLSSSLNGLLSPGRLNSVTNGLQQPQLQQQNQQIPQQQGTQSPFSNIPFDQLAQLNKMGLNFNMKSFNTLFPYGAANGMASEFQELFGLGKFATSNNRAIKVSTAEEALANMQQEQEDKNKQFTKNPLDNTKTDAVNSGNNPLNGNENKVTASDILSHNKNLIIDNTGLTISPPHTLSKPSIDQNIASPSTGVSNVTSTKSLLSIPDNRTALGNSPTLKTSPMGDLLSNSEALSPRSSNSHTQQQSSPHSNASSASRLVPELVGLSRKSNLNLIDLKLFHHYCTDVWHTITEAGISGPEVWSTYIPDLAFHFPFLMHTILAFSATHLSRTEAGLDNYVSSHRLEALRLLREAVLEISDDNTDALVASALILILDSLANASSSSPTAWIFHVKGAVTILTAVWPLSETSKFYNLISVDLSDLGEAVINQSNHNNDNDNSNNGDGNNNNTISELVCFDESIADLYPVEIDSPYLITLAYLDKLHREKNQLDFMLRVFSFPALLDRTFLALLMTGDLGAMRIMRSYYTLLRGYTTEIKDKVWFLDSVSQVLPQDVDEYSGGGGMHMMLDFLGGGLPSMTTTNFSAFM
# Assay: PBM E-score (8-mer binding enrichment) (E-score (-0.5 to 0.5)); higher = stronger / more preferred TF binding; most listed sequences are background and not binding sites
# Details: protein concentration: 200 nM; construct: GST-full length
# In short: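 Detection of bound protein used fluorescent anti-GST, with scans normalised by masliner. The proteins were GST-tagged yeast transcription factors applied at about 100-200 nM to universal all-10-mer Agilent arrays made double-stranded by primer extension. Each ungapped eight-base word, pooled with its reverse complement, was scored with an E-score from the Universal PBM Analysis Suite.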
row,Sequence,PBM E-score
1,CTCTCTGC,-0.015
2,ACCCACGT,-0.0378
3,AAACGGTA,0.287
4,GTACAACA,0.272
5,GTACACAA,0.102
6,CTATGACA,-0.181
7,GCAGGAAC,0.0756
8,CATGCCGG,0.0474
9,ATACATGC,0.175
10,CGCGTTCA,0.185
11,CGTCTTGA,-0.0385
12,AACAGAAA,-0.208
13,ACGATGGC,0.255
14,TACTGGGA,-0.0814
15,TGTGTTAA,0.0214
16,ACCCGAGG,0.194
17,AGCGAGGG,0.249
18,AGTGCGAC,0.137
19,CGAAAGAA,0.157
20,CCATTATA,-0.0361
21,ATGGTTTA,0.0156
22,CTCGTTGC,0.445
23,ATGGCCAA,-0.212
24,GTGTAATA,0.0256
25,GCGGGCCA,-0.117

row,Sequence,PBM E-score
1,AGATTTAG,0.0438
2,TACATTAA,0.145
3,CTCTTGTC,0.0278
4,ACATGGTA,0.134
5,AATTATCC,0.23
6,ATCAAAGG,-0.234
7,CAAGGGCA,-0.353
8,ACGCCATC,-0.0135
9,ATGAGACC,-0.123
10,CCACCGAA,0.0777
11,ATTCATGA,-0.168
12,GGCCTGAC,-0.258
13,ACATTAGG,-0.203
14,CACTGGAA,0.0376
15,AAGCTCGT,0.38
16,ATTCTTTC,-0.0407
17,GAGCGAGA,0.377
18,GACAAGCA,-0.158
19,ACTGGAAA,-0.0956
20,ATGTGGGA,-0.236
21,AATTTGCG,0.145
22,GCTGTACA,-0.0393
23,GAACATTC,-0.0602
24,GAGGCGAA,-0.00073
25,CTTGACAA,-0.0167

row,Sequence,PBM E-score
1,CGAGGGTC,0.231
2,AGGCGACC,-0.0532
3,GATCATCA,-0.0676
4,ACAGAAGT,-0.182
5,TCACCTGA,-0.332
6,ATCGATCA,0.154
7,CCATGGAC,-0.101
8,CCGTAAAC,0.355
9,GCCAGCCC,-0.185
10,CCGCAGGA,-0.252
11,CGAGCCTC,0.251
12,ACGCCTCT,-0.179
13,CGCCGATA,0.0708
14,ATCGCGCG,0.211
15,ACCGAAGC,0.119
16,ACGAAGGC,0.319
17,TCCATGCA,-0.178
18,ACTCTACA,-0.123
19,AGCACGCT,-0.119
20,CACTCCGA,-0.0912
21,ACTGTAGG,-0.1
22,ACGAAGGA,0.362
23,AAAGGTCG,0.00556
24,CTTACGTC,-0.0355
25,TCATTAAA,0.0422

row,Sequence,PBM E-score
1,GTTATGGA,-0.0843
2,CTTAGTAA,-0.197
3,TCTTAAAA,-0.223
4,ACGGCGTG,0.145
5,AGTGGTTG,-0.0826
6,CGAGTTTC,0.248
7,GAATAGCC,-0.147
8,GAAGGACC,-0.183
9,ATGAACAA,0.0355
10,AACAGCGA,-0.0103
11,AATAGGCA,-0.16
12,GAGGCTAC,-0.0866
13,GGACGCGA,-0.0208
14,AGCTGTAT,-0.124
15,ACCTTACC,-0.0514
16,CCGCTAGC,-0.195
17,TAGCAACA,0.0917
18,AATGCCCG,0.0448
19,AAGCACCA,-0.266
20,ACCAATAG,-0.255
21,CCTCTGCC,-0.333
22,CGAATGTC,-0.00475
23,AGTGCTTG,-0.0652
24,AACATACG,0.373
25,CTCTCCTA,-0.127

row,Sequence,PBM E-score
1,ATTTGCCG,0.0916
2,AAGAAGTA,0.0382
3,AAGATACA,-0.046
4,ATATGGGG,-0.185
5,CACCAAGC,-0.0761
6,AGAGAGCG,-0.0255
7,GGTCTGTA,0.0648
8,ATGGGGGC,-0.288
9,CAGTCCCC,-0.227
10,ACTAGACG,0.0989
11,CACAAATG,-0.0741
12,GCGGACCC,-0.0681
13,GTACGGCA,0.395
14,CAACGGAA,0.0411
15,ATATGAAC,0.113
16,CCAGTGAC,-0.286
17,ACCGGCAT,-0.0694
18,GTCACGGA,-0.0819
19,CAGATTGG,-0.345
20,GTCCGGCA,-0.148
21,AAGGCGAA,-0.0952
22,ACGTTTTC,0.192
23,AAGAATTC,-0.128
24,GTCTGAAC,0.0949
25,ATTAAAAA,0.0338

row,Sequence,PBM E-score
1,AGGCAACC,-0.216
2,AACCAGGC,-0.126
3,TCGTGAGA,0.0762
4,CTCGCACC,0.31
5,AAAGGCGC,0.115
6,TCAAGTCA,-0.192
7,CCCATAAG,-0.252
8,ACCCTAGG,-0.139
9,AGCCTCCT,-0.168
10,AATGGCTA,0.0032
11,CCAAAAGA,-0.029
12,GGGTATGA,-0.0157
13,AGGCGAGC,-0.0186
14,GTTAGCAA,0.026
15,CACCGACG,0.129
16,AAATGAGC,-0.0263
17,ATATCCAC,-0.0162
18,CGTACCTC,0.435
19,AGGCGTAT,0.184
20,ATTCGGCG,-0.0748
21,CAACGCAA,-0.00059
22,GGCGAACA,-0.122
23,ACATGGGG,-0.282
24,GCTAACAC,-0.0776
25,CGTCGTCC,-0.054

row,Sequence,PBM E-score
1,CCCGGCGG,-0.144
2,ACCGGGCT,-0.0376
3,AGATACAC,0.0546
4,ACTAATTA,-0.02
5,GCCGATCA,-0.00015
6,GATTCGAA,0.14
7,CACCATCC,-0.342
8,CATCACAC,-0.00373
9,AGATTGCT,-0.101
10,AAATCAGC,-0.0604
11,GAACAATC,-0.0337
12,CTTCGCCC,-0.168
13,CATGCAGG,-0.222
14,GTTGAATA,0.177
15,AGTGATGC,0.0406
16,AGTTCCTC,-0.117
17,CCAACCGG,0.0471
18,ATAGACAC,0.109
19,TGGACCAA,-0.206
20,GGAGTTTA,-0.197
21,AACGTTCC,0.259
22,CTTGAGAA,-0.141
